# Reference: the supplement of paper PMC4166925
# ± gives the standard deviation of the averaged measurements. In all, about 33,000 sequences were measured (“E-score (dimensionless, -0.5 to 0.5)”: median about -0.046, highest 2% from about 0.36 on). Some of the results follow.
# Test system: T1, SpTbr T-box DNA-binding domain (GST fusion)
# T1 sequence: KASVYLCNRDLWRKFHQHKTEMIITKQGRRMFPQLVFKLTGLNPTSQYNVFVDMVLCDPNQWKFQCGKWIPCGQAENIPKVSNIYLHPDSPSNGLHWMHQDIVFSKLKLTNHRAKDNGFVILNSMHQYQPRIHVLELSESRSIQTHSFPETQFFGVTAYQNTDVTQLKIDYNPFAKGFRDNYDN
# Assay: PBM E-score of 8-mer (E-score (dimensionless, -0.5 to 0.5)); Tbr is Tbrain of the sea star Patiria miniata (Pm) or the sea urchin Strongylocentrotus purpuratus (Sp); higher = stronger binding preference; most listed sequences are background and not binding sites
# Settings: the construct has about 5 more residues each side
# How it was run: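 Universal Agilent oligonucleotide arrays, made double-stranded by primer extension, were incubated with 200 nM GST-fused Tbr T-box DNA-binding domain in PBS (pH 7.5). The protein was expressed in BL21 E. coli at 20 °C and purified by glutathione affinity chromatography. After scanning and quantification, the Universal PBM Analysis Suite assigned an enrichment E-score to each ungapped 8-mer, averaged over duplicate arrays.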
row,Sequence,PBM E-score of 8-mer
1,CCTCTTAA,-0.125 ± 0.019
2,CATTGCTA,-0.0279 ± 0.034
3,CCACTACA,-0.0342 ± 0.011
4,GTGCAATA,0.156 ± 0.059
5,AAATGCGC,0.0497 ± 0.016
6,GACCCATA,-0.274 ± 0.031
7,GATAATGA,-0.0176 ± 0.062
8,AACCGTTA,0.0786 ± 0.051
9,AGGTGTCC,0.428 ± 0.0068
10,AAGAAAGT,-0.0786 ± 0.019
11,GGTCATCA,0.106 ± 0.028
12,ACTCACGC,0.321 ± 0.043
13,CATCGTAA,-0.157 ± 0.035
14,ACTCTATA,-0.0754 ± 0.07
15,CATATATA,-0.218 ± 0.096
16,GAGCTACA,0.0725 ± 0.038
17,AGGGACCC,-0.0731 ± 0.017
18,CCTGAGAC,-0.211 ± 0.019
19,ACGATCGG,0.0591 ± 0.014
20,CGCCGTTC,0.0479 ± 0.073
21,TCCTTTCA,-0.0136 ± 0.0097
22,AGTAAAGC,-0.2263 ± 0.0021

row,Sequence,PBM E-score of 8-mer
1,AACCGCCG,-0.0966 ± 0.016
2,AACAGGAC,-0.0388 ± 0.019
3,AGACAATG,0.0097 ± 0.034
4,ACCGTGGC,0.00789 ± 0.047
5,ATGATGAC,0.0572 ± 0.045
6,AATCAAAG,-0.232 ± 0.028
7,CTCAGCAA,-0.0639 ± 0.029
8,AACACATG,0.336 ± 0.046
9,CAGGGCTA,-0.145 ± 0.025
10,AGTCTATA,-0.195 ± 0.041
11,AATTAAAG,-0.205 ± 0.0089
12,GACGGCGA,0.0807 ± 0.014
13,ACATTCCG,0.0019 ± 0.027
14,AACGAAGT,-0.0781 ± 0.075
15,AAGCGAAA,-0.162 ± 0.019
16,AGAACGCG,0.0755 ± 0.0077
17,CCAGGAAA,-0.0426 ± 0.033
18,CGCGCGAA,0.408 ± 0.013
19,ACCATCTG,0.0889 ± 0.025
20,CCTTCCTA,-0.147 ± 0.024
21,CCACTGTC,0.0273 ± 0.0076
22,AGTTAAAG,-0.181 ± 0.071

row,Sequence,PBM E-score of 8-mer
1,CGCTTCTA,-0.0401 ± 0.026
2,TGCTAGCA,0.228 ± 0.021
3,GCACACTA,0.104 ± 0.018
4,CCGCCTTC,0.121 ± 0.014
5,GCGTTTAA,-0.0335 ± 0.054
6,AAGTGCGA,0.483 ± 0.0069
7,CCCGAAGG,-0.162 ± 0.055
8,CGCCTTCA,0.20133 ± 4.2e-05
9,AACTGGAA,-0.271 ± 0.038
10,CCGCTTGC,0.0621 ± 0.011
11,CATCAATC,-0.161 ± 0.074
12,AGTGTGTG,0.36 ± 0.023
13,GAGGAACC,-0.132 ± 0.11
14,AATATGGA,-0.225 ± 0.073
15,ATACAGCC,-0.294 ± 0.058
16,CACCCCGC,0.249 ± 0.042
17,ACGCACCT,0.366 ± 0.0075
18,CTTGTGAC,0.253 ± 0.003
19,ATGGACCG,-0.157 ± 0.0094
20,CCATACCA,-0.083 ± 0.077
21,CATGGTTC,0.0583 ± 0.067
22,ATTGAGGC,-0.074 ± 0.032

row,Sequence,PBM E-score of 8-mer
1,AGCTCAGA,-0.0155 ± 0.07
2,CAGGTTCC,-0.104 ± 0.083
3,GGTCTTAC,-0.251 ± 0.029
4,ACTTGGCC,0.0332 ± 0.045
5,GCGGTGTA,-0.122 ± 0.012
6,CTAGAAAG,-0.103 ± 0.031
7,AGATACCT,-0.125 ± 0.072
8,GGGCAATA,-0.261 ± 0.046
9,ATATCAGC,-0.114 ± 0.044
10,CGACTTTA,0.0445 ± 0.032
11,TGAATGAA,-0.243 ± 0.038
12,AAAGACGG,-0.0799 ± 0.015
13,AACGTGTA,0.135 ± 0.074
14,CGGGCAGA,-0.00966 ± 0.018
15,CACTCAAA,-0.0682 ± 0.008
16,GAACAACA,0.144 ± 0.08
17,AGAAGACG,-0.233 ± 0.0039
18,CAGTGCGG,0.107 ± 0.0036
19,CTTTCTAC,-0.0127 ± 0.014
20,CTAAACTC,-0.124 ± 0.069
